8 compounds from PubChem BioAssay AID220 (DTP/NCI, 2004) can be followed below.

Results filed as inconclusive are left out. Some entries of the source have several records that differ or are many. Only these are listed. The source may hold further records. Results that share an entry are repeats in other runs, samples, wells, individuals or studies.

In the test the test system is CD8F1 mice, subcutaneous mammary adenocarcinoma, T/C%. Briefly: NCI In Vivo Anticancer Drug Screen. Data for tumor model Mammary Adenocarcinoma CD8F1 (subcutaneous) in CD8F1. The note with it: endpoint: median tumor weight (est.), schedule: Q07DX005 (ip), higher = larger tumour. The method, boiled down: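 Tumor-bearing mice, transplantable model; readout survival or tumor size; value = treated (T) / vehicle control (C).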

With `CN1c2c(nc(N)[nH]c2=O)NCC1CCNc1ccc(C(=O)NC(CCC(=O)O)C(=O)O)cc1` (stereo not given), the T/C is, setting by setting: (dose: 50.0 mg/kg/injection, vehicle: saline) 26 % of control, 94 % of control, 99 % of control; (dose: 100.0 mg/kg/injection, vehicle: saline) 38 % of control, 40 % of control, 114 % of control; (dose: 200.0 mg/kg/injection, vehicle: saline) 42 % of control, 66 % of control, 188 % of control; (dose: 400.0 mg/kg/injection, vehicle: saline) 63 % of control, 107 % of control, 109 % of control; (dose: 1600.0 mg/kg/injection, vehicle: saline) 59 % of control and 108 % of control. Take `Cc1c2c(ccc3ccccc32)c[n+]2ccccc12`: the T/C (dose: 3.12 mg/kg/injection, vehicle: saline) is 75 % of control and 194 % of control.

Take `C[C@]12CC[C@H]3[C@@H](CCC4=C[C@@H](OC5OCC(OC6OC(CO)C(O)C(O)C6O)C(O)C5O)CC[C@@]43C=O)[C@@]1(O)CCC2C1=CC(=O)OC1` (stereo not given in full): the T/C runs as follows: (dose: 2.5 mg/kg/injection, vehicle: Klucel (hydroxypropylcellulose) (HPC)) 65 % of control and 95 % of control; (dose: 5.0 mg/kg/injection, vehicle: Klucel (hydroxypropylcellulose) (HPC)) 94 % of control and 124 % of control. As for `O=NN(CCCl)C(=O)NCCCl`, the T/C by setting is: (dose: 1.0 mg/kg/injection, vehicle: saline with Tween-80) 95 % of control and 152 % of control; (dose: 4.0 mg/kg/injection, vehicle: saline with Tween-80) 58 % of control and 86 % of control. Consider `CCCCCCCCCCS(=O)CC(CO)NC(=O)/C=C/c1c(C)[nH]c(=O)[nH]c1=O` (stereo not given), for which the T/C (dose: 24.0 mg/kg/injection, vehicle: saline with Tween-80) was 39 % of control and 120 % of control. As to `CC(=O)OCc1cc(=O)n(C)c2c3c4c(cc12)c(C)cc(=O)n4CO3`, the T/C by setting is: (dose: 25.0 mg/kg/injection, vehicle: Klucel (hydroxypropylcellulose) (HPC)) 40 % of control and 66 % of control; (dose: 50.0 mg/kg/injection, vehicle: Klucel (hydroxypropylcellulose) (HPC)) 65 % of control and 105 % of control.

As to `Cc1cc(C)c(-c2cc(O)c(C)cc2O)c(C)c1`, under “dose: 100.0 mg/kg/injection, vehicle: Klucel (hydroxypropylcellulose) (HPC)”, the T/C is 92 % of control and 158 % of control. For `CS(=O)(=O)OCCN(CCOS(C)(=O)=O)c1ccc(C=O)cc1`, the T/C (dose: 50.0 mg/kg/injection, vehicle: saline with Tween-80) was 79 % of control and 247 % of control.
